Results reported in patent US6528630B1 (priority 1997, dated 2003).

Experiments:
[1] = biological target: T1, human neuronal calcium channel α1D, α2 and β1 subunits (Homo sapiens, UniProt Q01668); format: cell-based; parameters: The full-length α1D cDNA from pVDCCIII(A); expressed in transfected cells; host or cells: HEK 293 (transient)
[2] = biological target: T1, human neuronal calcium channel α1D, α2 and β1 subunits; settings: 1 μM Bay K 8644
[3] = biological target: human neuronal calcium channel α1D and β1 subunits (Homo sapiens, UniProt Q01668); experiment: Two-electrode voltage clamp of Xenopus oöcytes injected with α1D and β1 transcripts; settings: two of the four oöcytes
Sequence of human neuronal calcium channel α1D and β1 subunits (Q01668 10-2161): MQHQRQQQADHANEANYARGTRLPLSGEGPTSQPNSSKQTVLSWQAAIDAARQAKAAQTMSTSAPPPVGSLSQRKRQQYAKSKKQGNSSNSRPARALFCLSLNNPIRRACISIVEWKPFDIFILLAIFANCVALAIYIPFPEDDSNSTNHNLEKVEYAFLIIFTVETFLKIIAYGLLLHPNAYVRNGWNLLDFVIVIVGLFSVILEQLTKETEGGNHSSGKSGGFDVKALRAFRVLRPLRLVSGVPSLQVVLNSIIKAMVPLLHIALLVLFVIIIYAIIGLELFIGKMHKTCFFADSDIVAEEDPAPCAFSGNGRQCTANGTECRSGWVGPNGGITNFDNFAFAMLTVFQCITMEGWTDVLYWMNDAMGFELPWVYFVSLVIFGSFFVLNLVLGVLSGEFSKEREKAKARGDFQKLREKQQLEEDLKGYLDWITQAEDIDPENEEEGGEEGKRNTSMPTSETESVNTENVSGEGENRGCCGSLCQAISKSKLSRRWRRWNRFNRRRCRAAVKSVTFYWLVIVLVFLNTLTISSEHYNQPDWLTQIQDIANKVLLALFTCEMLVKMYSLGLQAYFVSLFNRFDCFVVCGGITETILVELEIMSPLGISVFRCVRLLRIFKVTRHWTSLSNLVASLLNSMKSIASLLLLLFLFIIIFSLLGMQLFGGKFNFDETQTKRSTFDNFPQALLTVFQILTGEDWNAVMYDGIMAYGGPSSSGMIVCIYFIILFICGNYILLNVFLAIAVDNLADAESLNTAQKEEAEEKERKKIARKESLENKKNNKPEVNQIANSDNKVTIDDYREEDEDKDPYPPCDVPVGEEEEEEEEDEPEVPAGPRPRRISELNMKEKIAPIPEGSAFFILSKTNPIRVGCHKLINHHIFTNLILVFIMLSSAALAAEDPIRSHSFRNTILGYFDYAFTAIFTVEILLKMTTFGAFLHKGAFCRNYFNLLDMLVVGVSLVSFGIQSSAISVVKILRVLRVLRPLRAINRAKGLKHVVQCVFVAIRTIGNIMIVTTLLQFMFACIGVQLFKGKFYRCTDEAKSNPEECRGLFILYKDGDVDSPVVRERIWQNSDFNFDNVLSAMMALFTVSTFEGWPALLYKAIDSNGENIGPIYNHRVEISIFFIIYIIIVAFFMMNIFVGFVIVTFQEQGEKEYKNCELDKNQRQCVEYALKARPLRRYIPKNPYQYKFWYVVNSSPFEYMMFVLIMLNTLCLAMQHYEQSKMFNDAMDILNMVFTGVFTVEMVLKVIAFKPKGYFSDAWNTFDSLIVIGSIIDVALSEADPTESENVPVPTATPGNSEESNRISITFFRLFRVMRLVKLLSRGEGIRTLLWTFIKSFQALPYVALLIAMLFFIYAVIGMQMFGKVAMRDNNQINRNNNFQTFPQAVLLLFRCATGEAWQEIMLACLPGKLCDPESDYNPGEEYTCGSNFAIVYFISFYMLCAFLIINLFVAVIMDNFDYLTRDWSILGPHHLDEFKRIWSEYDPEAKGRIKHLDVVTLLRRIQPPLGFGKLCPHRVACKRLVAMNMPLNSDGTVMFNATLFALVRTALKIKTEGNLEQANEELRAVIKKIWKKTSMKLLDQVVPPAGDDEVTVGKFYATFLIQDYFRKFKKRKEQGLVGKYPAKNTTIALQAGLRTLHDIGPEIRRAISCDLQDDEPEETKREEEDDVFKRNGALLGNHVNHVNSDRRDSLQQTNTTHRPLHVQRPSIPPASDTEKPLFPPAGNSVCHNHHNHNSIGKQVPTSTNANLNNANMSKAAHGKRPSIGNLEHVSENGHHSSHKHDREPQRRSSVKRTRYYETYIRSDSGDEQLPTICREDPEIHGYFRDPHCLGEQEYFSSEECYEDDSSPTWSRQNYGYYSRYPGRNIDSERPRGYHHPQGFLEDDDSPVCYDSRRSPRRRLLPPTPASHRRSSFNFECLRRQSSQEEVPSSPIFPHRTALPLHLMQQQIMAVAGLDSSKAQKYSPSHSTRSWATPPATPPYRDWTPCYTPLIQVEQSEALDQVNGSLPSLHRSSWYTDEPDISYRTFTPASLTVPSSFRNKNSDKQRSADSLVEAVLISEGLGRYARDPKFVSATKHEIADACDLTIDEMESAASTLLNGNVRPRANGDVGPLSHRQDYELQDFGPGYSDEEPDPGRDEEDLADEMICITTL
Sequence of human neuronal calcium channel α1D and β1 subunits (Q02641 1-478 isoform Q02641-3 partner): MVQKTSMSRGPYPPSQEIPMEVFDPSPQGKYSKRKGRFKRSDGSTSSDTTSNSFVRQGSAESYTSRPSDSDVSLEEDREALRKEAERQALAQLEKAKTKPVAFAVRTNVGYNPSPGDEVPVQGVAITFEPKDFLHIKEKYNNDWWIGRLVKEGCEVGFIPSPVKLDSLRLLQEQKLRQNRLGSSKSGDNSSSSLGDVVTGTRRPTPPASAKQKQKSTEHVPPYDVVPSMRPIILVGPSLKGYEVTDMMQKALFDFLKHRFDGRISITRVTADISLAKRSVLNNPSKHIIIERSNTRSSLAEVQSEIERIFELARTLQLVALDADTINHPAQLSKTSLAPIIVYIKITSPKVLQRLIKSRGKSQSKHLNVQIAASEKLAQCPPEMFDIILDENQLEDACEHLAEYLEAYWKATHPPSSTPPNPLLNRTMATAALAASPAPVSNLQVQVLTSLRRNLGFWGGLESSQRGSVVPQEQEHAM

T1 sequence (Q01668 whole entry): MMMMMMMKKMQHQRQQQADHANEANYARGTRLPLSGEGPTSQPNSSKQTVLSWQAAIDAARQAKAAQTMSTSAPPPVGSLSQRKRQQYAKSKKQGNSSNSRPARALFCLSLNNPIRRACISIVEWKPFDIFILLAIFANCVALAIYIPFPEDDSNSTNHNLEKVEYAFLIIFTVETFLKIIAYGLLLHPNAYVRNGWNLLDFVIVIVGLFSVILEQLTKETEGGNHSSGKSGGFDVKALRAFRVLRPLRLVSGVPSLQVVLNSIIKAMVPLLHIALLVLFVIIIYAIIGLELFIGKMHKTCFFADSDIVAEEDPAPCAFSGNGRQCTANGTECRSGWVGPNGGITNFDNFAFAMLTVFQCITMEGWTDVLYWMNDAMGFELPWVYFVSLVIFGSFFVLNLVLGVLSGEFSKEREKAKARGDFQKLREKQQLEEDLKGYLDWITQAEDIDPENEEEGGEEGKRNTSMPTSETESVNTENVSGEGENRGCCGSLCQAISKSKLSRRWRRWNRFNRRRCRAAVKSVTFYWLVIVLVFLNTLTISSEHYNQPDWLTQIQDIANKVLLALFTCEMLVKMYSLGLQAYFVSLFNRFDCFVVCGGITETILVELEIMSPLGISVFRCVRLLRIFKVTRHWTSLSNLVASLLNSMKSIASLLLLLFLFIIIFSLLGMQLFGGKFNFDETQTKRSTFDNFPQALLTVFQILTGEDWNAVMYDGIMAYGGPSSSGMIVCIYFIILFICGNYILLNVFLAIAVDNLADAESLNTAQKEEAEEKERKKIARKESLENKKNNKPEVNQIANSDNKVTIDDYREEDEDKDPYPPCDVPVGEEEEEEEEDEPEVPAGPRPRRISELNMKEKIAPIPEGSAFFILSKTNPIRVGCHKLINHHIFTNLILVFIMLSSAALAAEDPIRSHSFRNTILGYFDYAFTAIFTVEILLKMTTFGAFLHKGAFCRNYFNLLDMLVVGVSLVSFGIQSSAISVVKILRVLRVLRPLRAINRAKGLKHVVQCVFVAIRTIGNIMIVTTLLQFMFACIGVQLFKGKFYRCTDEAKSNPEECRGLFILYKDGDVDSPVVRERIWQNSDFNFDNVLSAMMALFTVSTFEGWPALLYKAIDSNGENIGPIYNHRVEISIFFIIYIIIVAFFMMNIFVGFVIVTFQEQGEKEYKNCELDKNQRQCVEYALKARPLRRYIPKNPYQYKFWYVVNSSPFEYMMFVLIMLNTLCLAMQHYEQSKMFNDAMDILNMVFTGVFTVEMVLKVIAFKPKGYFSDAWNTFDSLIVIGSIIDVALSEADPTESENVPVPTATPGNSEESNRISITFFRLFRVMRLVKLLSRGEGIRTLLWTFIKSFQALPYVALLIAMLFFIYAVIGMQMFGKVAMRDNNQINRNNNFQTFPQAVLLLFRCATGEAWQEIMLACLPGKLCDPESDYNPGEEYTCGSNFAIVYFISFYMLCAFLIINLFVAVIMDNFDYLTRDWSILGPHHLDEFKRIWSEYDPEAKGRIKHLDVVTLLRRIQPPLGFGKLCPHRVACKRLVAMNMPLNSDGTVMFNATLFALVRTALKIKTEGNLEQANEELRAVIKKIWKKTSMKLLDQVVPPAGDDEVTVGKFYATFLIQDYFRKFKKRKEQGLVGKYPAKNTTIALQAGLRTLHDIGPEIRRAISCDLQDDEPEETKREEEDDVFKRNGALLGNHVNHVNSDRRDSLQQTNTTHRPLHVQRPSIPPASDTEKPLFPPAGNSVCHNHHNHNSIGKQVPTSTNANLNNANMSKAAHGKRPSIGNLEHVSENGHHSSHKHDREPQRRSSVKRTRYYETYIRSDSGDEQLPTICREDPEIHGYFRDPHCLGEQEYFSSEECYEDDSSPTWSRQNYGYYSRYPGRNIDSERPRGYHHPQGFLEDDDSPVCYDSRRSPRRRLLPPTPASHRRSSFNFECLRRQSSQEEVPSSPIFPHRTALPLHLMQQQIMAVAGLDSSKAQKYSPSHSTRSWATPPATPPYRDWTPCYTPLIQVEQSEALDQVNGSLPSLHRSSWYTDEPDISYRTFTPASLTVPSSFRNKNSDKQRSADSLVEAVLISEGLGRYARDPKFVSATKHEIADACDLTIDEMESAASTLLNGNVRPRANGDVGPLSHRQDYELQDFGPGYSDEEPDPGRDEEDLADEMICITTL

COC(=O)C1=C(C)NC(C)=C([N+](=O)[O-])C1c1ccccc1C(F)(F)F (stereo not shown) [Bay K 8644]
effect on inward barium current [1]: significantly enhanced in magnitude
largest inward barium current [1]: ~160 pA
tail currents [1]: Pronounced tail currents
shift of current-voltage relation [2]: about −10 mV
tail current [2]: augmented and prolonged tail current
barium current during application ([2]; depolarized to −10 mV from holding potential −90 mV (approximately 35 pA in its absence)): approximately 75 pA
sensitivity of Ba2+ currents to Bay K 8644 compared with α1D, α2 and β1 oöcytes [3]: similar
